Measured values: publication PMC12820563
The list shows a part of the results. The list includes weakly bound sequences.

Each sequence was assayed against T1, MBP-FoxP3dN (UniProt Q99JB6) (assay: PD-seq (MBP pull-down with sequencing)). Details: 20 mM Tris-HCl pH 7.5, 100 mM NaCl, 1.5 mM MgCl2, 0.4 uM protein, 0.1 uM dsDNA library, 30 min, room temperature, amylose pull-down; high values mean tight binding; double strand, one strand shown.
T1 sequence: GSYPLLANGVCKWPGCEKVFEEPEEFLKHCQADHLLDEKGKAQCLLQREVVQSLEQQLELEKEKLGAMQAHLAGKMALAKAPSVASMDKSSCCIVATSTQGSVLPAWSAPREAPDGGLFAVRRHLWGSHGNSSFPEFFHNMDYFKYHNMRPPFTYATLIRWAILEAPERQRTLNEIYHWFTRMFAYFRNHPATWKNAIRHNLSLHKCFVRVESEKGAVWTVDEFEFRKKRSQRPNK

Sequence	binding signal (RPM ratio (pull-down/input))
GATGATTGTTCTCCCAGCTGATGAATTGCGATACTCGAGTAAACAAATTTTCCTAATCTTTCTGTTCAAGCGCCATCTAC	1.26
GATGATTGTTCTCCCAGCTGATGAATTACGTTGATCGAGTAAACAAATTTTCCTAATCTTTCTGTTCAAGCGCCATCTAC	1.44
GATGATTGTTCTCCCAGCTGATGAATTCCAACGATCGAGTAAACAAATTTTCCTAATCTTTCTGTTCAAGCGCCATCTAC	0.313
GATGATTGTTCTCCCAGCTGATGAATTGCCTACTTCGAGTAAACAAATTTTCCTAATCTTTCTGTTCAAGCGCCATCTAC	0.561
GATGATTGTTCTCCCAGCTGATGAATTTACCCTCTCGAGTAAACAAATTTTCCTAATCTTTCTGTTCAAGCGCCATCTAC	0.461
GATGATTGTTCTCCCAGCTGATGAATTAAAGGGATCGAGTAAACAAATTTTCCTAATCTTTCTGTTCAAGCGCCATCTAC	0.259
GATGATTGTTCTCCCAGCTGATGAATTCATACCGTCGAGTAAACAAATTTTCCTAATCTTTCTGTTCAAGCGCCATCTAC	0.396
GATGATTGTTCTCCCAGCTGATGAATTATCCGAATCGAGTAAACAAATTTTCCTAATCTTTCTGTTCAAGCGCCATCTAC	0.207
GATGATTGTTCTCCCAGCTGATGAATTTGACGGATCGAGTAAACAAATTTTCCTAATCTTTCTGTTCAAGCGCCATCTAC	0.251
GATGATTGTTCTCCCAGCTGATGAATTACGGCTCTCGAGTAAACAAATTTTCCTAATCTTTCTGTTCAAGCGCCATCTAC	0.506
GATGATTGTTCTCCCAGCTGATGAATTCTTAAGTTCGAGTAAACAAATTTTCCTAATCTTTCTGTTCAAGCGCCATCTAC	0.237
GATGATTGTTCTCCCAGCTGATGAATTAACCATATCGAGTAAACAAATTTTCCTAATCTTTCTGTTCAAGCGCCATCTAC	0.414
GATGATTGTTCTCCCAGCTGATGAATTTATCGTATCGAGTAAACAAATTTTCCTAATCTTTCTGTTCAAGCGCCATCTAC	1.92
GATGATTGTTCTCCCAGCTGATGAATTTTAAGGCTCGAGTAAACAAATTTTCCTAATCTTTCTGTTCAAGCGCCATCTAC	0.29
GATGATTGTTCTCCCAGCTGATGAATTATTGCAATCGAGTAAACAAATTTTCCTAATCTTTCTGTTCAAGCGCCATCTAC	4.25
GATGATTGTTCTCCCAGCTGATGAATTATCGCGTTCGAGTAAACAAATTTTCCTAATCTTTCTGTTCAAGCGCCATCTAC	1.37
GATGATTGTTCTCCCAGCTGATGAATTGTTGTTCTCGAGTAAACAAATTTTCCTAATCTTTCTGTTCAAGCGCCATCTAC	7.17
GATGATTGTTCTCCCAGCTGATGAATTTCGTCTGTCGAGTAAACAAATTTTCCTAATCTTTCTGTTCAAGCGCCATCTAC	0.577
